Source: PubChem BioAssay AID686978 (National Center for Advancing Translational Sciences (NCATS), 2013)
The whole screen tested about 420,000 compounds, of which about 64,000 (15%) were called active. This list was built around the results that the source calls inconclusive (neither active nor inactive); the mix of calls is not that of the screen. The call rests on the fitted dose curve; in most records, active means well fitted inhibition curve with a large enough effect; inconclusive means small, poorly fitted or top-dose-only effect; inactive means flat fitted curve, though single readings scatter. No potency is given beside an inconclusive call; the fits are too rough.
Potency means the concentration at half of the fitted maximal effect; tags describe the fitted curve by direction and shape.

Test: qHTS for Inhibitors of human tyrosyl-DNA phosphodiesterase 1 (TDP1): qHTS in cells in absence of CPT; further: nearly all actives have a fitted effect of over 55% in size
Settings: DT40 Tdp1-/- hTDP1 cells, no CPT, ATP luminescence, 48 h; series mostly up to 46.2 µM
How it was run: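 Readout: luminescence from CellTiter-Glo after 30 min in the dark at RT. Cells: DT40 Tdp1-/- with stable hTDP1, 400/well. Exposure: compounds alone, ≥48 hr, 37 °C.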
In the case of `C/C(=N\NC(=O)CNC(=O)c1cccc(F)c1)c1ccc2ccccc2c1`, the Potency is reported as “inactive”. With `O=C1NC[C@H](CC2CCCCC2)N(CCc2cccc3ccccc23)C1=O` the Potency was active: 16.4 µM. In the case of `O=C(CCC1N=C2c3ccccc3N=C(SCC(=O)NCCc3ccccc3)N2C1=O)NCc1ccc(F)cc1` (stereo not drawn), the Potency is reported as inconclusive [inhibitor, single point]. In the case of `O=C1CSC(c2ccccc2)N1CCc1ccccc1` (stereo not drawn), the Potency is reported as inconclusive [inhibitor, single point]. In the case of `COc1ccc(OCCN2C(=O)c3cccc(N)c3C2=O)cc1`, the Potency is reported as “inactive”. In the case of `CCNc1ncc2nc(-c3cc(F)cc(F)c3)c(=O)n(C)c2n1`, the Potency is reported as “inactive”. With `Cc1ccc(CNC(=O)CSCc2nc(-c3cccc(C)c3)oc2C)cc1` the Potency was inconclusive [inhibitor, single point]. With `Cc1nn(-c2ccc(N3CCCCC3)nn2)c(C)c1CCC(=O)Nc1ccc(F)c(F)c1` the Potency was “inactive”. In the case of `CCOC(=O)Cn1c(=O)oc2cc(S(=O)(=O)NCCc3ccc(OCC)c(OCC)c3)ccc21`, the Potency is reported as inconclusive [inhibitor, partial curve]. In the case of `CCC(C)c1ccc(C2C3=C(Nc4nc(N)[nH]c(=O)c42)c2ccccc2C3=O)cc1` (stereo not drawn), the Potency is reported as inconclusive [inhibitor, single point]. For `Cc1ccc(NC(=O)C2C3CCCCC32)cc1[N+](=O)[O-]` (stereo not drawn), the Potency was “inactive”. In the case of `COc1ccc(OCCN2CCC(C(=O)NC(c3ccccn3)c3ccccc3OC)CC2)cc1` (stereo not drawn), the Potency is reported as “inactive”. For `CCS(=O)(=O)c1nc(S(=O)(=O)c2ccc(Cl)cc2)c(N2CCOCC2)s1`, the Potency was inconclusive [inhibitor, single point]. With `CCN1C=C(Cc2ccccc2C)C2=C(C1)C(c1ccccc1C)C(C#N)=C(N)O2` (stereo not drawn) the Potency was active: 20.6 µM. In the case of `CC(=O)c1sc(N/N=C\c2ccc(Br)cc2)nc1C`, the Potency is reported as inconclusive [inhibitor, single point]. For `COc1ccc(NC(=O)c2cccc(S(=O)(=O)NCc3ccco3)c2)c(OC)c1`, the Potency was inconclusive [inhibitor, partial curve]. For `CC/C(=C\C(=O)c1ccncc1)Nc1ccc(O)cc1`, the Potency was active: 20.6 µM. With `CCCN(CCC)C(=O)Cn1c(=O)n(-c2ccc(Cl)c(Cl)c2)c(=O)c2c(C)c(C(=O)N(C)C)sc21` the Potency was “inactive”. For `CCOc1ccc(OCC)c(NC(=O)C2CCCN(S(=O)(=O)c3ccc(C)cc3)C2)c1` (stereo not drawn), the Potency was active: 16.4 µM. With `O=C(Nc1ccc(Cl)cn1)c1cccnc1` the Potency was inconclusive [inhibitor, partial curve]. In the case of `COc1ccc(-c2c(C)nn3c(N4CCN(c5cc(Cl)ccc5C)CC4)cc(C)nc23)cc1OC`, the Potency is reported as inconclusive [inhibitor, partial curve]. With `O=C(Nc1cccc(-c2cccc(Cl)c2)c1)C1CCN(Cc2ccc(CO)o2)CC1` the Potency was inconclusive [inhibitor, single point]. In the case of `O=C(NCCS(=O)(=O)N1CCN(c2ccccc2F)CC1)c1cccs1`, the Potency is reported as “inactive”. For `C/C(=N\NC(=O)c1ccc(CN2CCc3ccccc3C2)cc1)c1ccccc1O`, the Potency was active: 8.2 µM. In the case of `CCCCCCCCN1C(=O)[C@H](CC(=O)N2CCOCC2)C[C@@]2(C(=O)OC)CCCCC=C12`, the Potency is reported as active: 14.6 µM. For `Cc1ccc(C(=O)Nc2oc(-c3ccccc3)cc2C#N)cc1`, the Potency was inconclusive [inhibitor, partial curve, poor fit]. In the case of `CC(C)CN1C(=O)c2ccc(C(=O)Nc3ccccc3C(=O)O)cc2C1=O`, the Potency is reported as inconclusive [inhibitor, single point]. For `CC(=O)Nc1ccccc1-c1nc2ccc(C(=O)N3CCN(c4cc(C)ccc4C)CC3)cc2[nH]c1=O`, the Potency was active: 14.6 µM. For `CC(NC(=O)c1cc2ccccc2oc1=O)c1ccccc1` (stereo not drawn), the Potency was “inactive”. For `CCCCN(CC)C(=O)Cn1ncc2c1-c1cc(C)ccc1OC2`, the Potency was inconclusive [inhibitor, single point]. In the case of `CC(C)N1CCN(S(=O)(=O)c2ccc3ccccc3c2)CC1`, the Potency is reported as “inactive”. With `Cc1ccn2c(Nc3ccc4c(c3)OCCO4)c(-c3ccc(N(C)C)cc3)nc2c1` the Potency was inconclusive [inhibitor, single point]. In the case of `COc1ccc(OC)c(/C=C/C(=O)NCCc2nc3ccccc3[nH]2)c1`, the Potency is reported as active: 11.6 µM. For `Cc1nn(C2CCS(=O)(=O)C2)c(Cl)c1/C=C/C(=O)OCC(=O)c1cc(C)n(-c2ccc(F)cc2)c1C` (stereo not drawn), the Potency was active: 16.4 µM. In the case of `COc1ccccc1N1CCN(C(=O)CN(CCc2ccccc2)S(C)(=O)=O)CC1`, the Potency is reported as active: 10 µM. With `Cn1c(=O)n(C)c2cc(N3CCOCC3)c(NS(=O)(=O)c3ccc(Cl)cc3)cc21` the Potency was active: 13 µM. For `O=C1c2sccc2-c2cccc3cccc1c23`, the Potency was inconclusive [inhibitor, single point]. With `Cc1ccc(-n2c(=O)c3c(cnn3C)n(CC(=O)Nc3cccc(C)c3)c2=O)cc1` the Potency was inconclusive [inhibitor, single point]. With `CCc1nc2c(OCc3ccc(C(=O)OC)cc3)cccn2c1N(C)C(=O)CC(C)C` the Potency was inconclusive [inhibitor, single point]. For `Cc1cccc(NC(=O)CN2CCC(C(=O)c3ccc4c(c3)OCCO4)CC2)c1`, the Potency was active: 16.4 µM. For `CC1=CC(=C(C#N)c2nc3ccccc3s2)C=C(C)N1c1ccc(F)cc1`, the Potency was inconclusive [inhibitor, partial curve, poor fit]. In the case of `COc1cc2cc(C(=O)N/N=C/c3ccccc3Cl)[nH]c2cc1OC`, the Potency is reported as active: 23.1 µM. For `COc1ccc(OC)c(N(CCN2C(=O)c3ccccc3C2=O)C(=O)CCl)c1`, the Potency was active: 20.6 µM. With `O=C(Nc1ccc(Br)cn1)c1cccc(-c2cc3ccccc3oc2=O)c1` the Potency was inconclusive [inhibitor, single point]. For `COC(=O)Nc1ccc(S(=O)(=O)N2CCCC(C(=O)N3CCCCCC3)C2)cc1` (stereo not drawn), the Potency was inconclusive [inhibitor, single point]. For `CCC(C)NC(=O)Nc1ccc(Br)cc1` (stereo not drawn), the Potency was inconclusive [inhibitor, partial curve]. In the case of `CC(C)C(=O)N1CCC1(C)C(=O)Nc1cccc(Oc2ccccc2)c1` (stereo not drawn), the Potency is reported as inconclusive [inhibitor, single point]. For `O=C(CC[C@H]1O[C@@H](n2ccc(=O)[nH]c2=O)[C@H](O)[C@@H]1O)N[C@H](Cc1ccccc1)C(=O)NCCCN1CCCC1=O`, the Potency was “inactive”. In the case of `CC(=O)C(Sc1ccc2nnc(-c3ccncc3)n2n1)C(C)=O`, the Potency is reported as inconclusive [inhibitor, partial curve]. For `CCOC(=O)Cn1c(CN2CCN(c3ccc(OC)cc3)CC2)nc2c1c(=O)[nH]c(=O)n2C`, the Potency was “inactive”. For `Cc1cc(=O)n(Cc2c(F)cccc2Cl)c2c1c(C)nn2C`, the Potency was “inactive”. In the case of `CC(SC(=S)N1CCOCC1)C(=O)O` (stereo not drawn), the Potency is reported as “inactive”. In the case of `CCCCOc1cccc(-c2cc(C(=O)NNC(=S)NCC)c3ccccc3n2)c1`, the Potency is reported as inconclusive [inhibitor, single point]. For `Cc1ccc(OCc2n[nH]c(=S)n2-c2ccccc2)cc1`, the Potency was “inactive”. For `CC1(C(=O)NS(=O)(=O)c2ccc(F)cc2F)CCN1C(=O)CCc1ccc(Cl)cc1Cl` (stereo not drawn), the Potency was “inactive”. With `CC[C@]12CCCN3CCc4c(n(c5ccccc45)C(=O)C1)[C@H]32` the Potency was active: 9.44 µM. With `CCOc1cc(NC(=S)NCC(C)C)c(OCC)cc1NC(=O)c1cccs1` the Potency was inconclusive [inhibitor, single point]. In the case of `O=C(CSc1nn(-c2ccc(F)cc2)c(=S)s1)NC1CCS(=O)(=O)C1` (stereo not drawn), the Potency is reported as “inactive”. With `O=c1c(-c2cc(F)cc(F)c2)nc2cncnc2n1Cc1ccccc1` the Potency was inconclusive [inhibitor, single point]. In the case of `c1sc2[n+](c1C13CC4CC(CC(C4)C1)C3)CCS2`, the Potency is reported as inconclusive [inhibitor, single point]. With `Cc1cc(C(=O)NNC(=O)NC(C)C)no1` the Potency was “inactive”. For `COc1ncnc2c1oc1nc(C(C)C)c3c(c12)CC(C)(C)OC3`, the Potency was inconclusive [inhibitor, single point]. With `CC(=O)Nc1cccc(-c2nc3ccccc3[nH]2)c1` the Potency was “inactive”. In the case of `CN/N=C(\Cc1nc2ccccc2[nH]1)c1ccc([N+](=O)[O-])cc1`, the Potency is reported as inconclusive [inhibitor, partial curve, poor fit]. For `O=S1(=O)N[C@H](c2ccccc2)C[C@H](c2ccc(C(F)(F)F)cc2)O1`, the Potency was inconclusive [inhibitor, partial curve]. For `O=C(Cn1c(-c2cscn2)nc2ccccc21)Nc1ccc(Cl)cc1`, the Potency was active: 20.6 µM. With `O=C(Nc1ccn(Cc2ccccc2F)n1)c1ccc(COc2ccccc2Cl)cc1` the Potency was inconclusive [inhibitor, single point]. In the case of `Cc1cc(NC(=O)c2ccc(C#N)cc2)n(-c2ccccn2)n1`, the Potency is reported as inconclusive [inhibitor, full curve]. With `COc1cc2ccccc2cc1C(=O)N(CCN(C)C)c1nc2ccc(C)cc2s1` the Potency was inconclusive [inhibitor, single point]. For `Cc1noc(C)c1-c1ccc2ncnc(NCc3cccnc3)c2c1`, the Potency was inconclusive [inhibitor, single point]. For `CN(C)C(CNC(=O)c1ccc2c(=O)n(-c3ccccc3F)c(=S)[nH]c2c1)Cc1ccccc1` (stereo not drawn), the Potency was active: 18.4 µM. For `CCOc1ccc(NC(=O)CN2CCN(Cc3c(F)cccc3F)CC2)cc1`, the Potency was “inactive”. In the case of `COc1ccc(CNC(=O)c2cc3c(=O)n4cccc(C)c4nc3n(CC3CCCO3)c2=N)cc1` (stereo not drawn), the Potency is reported as inconclusive [inhibitor, single point].
